Our source for the binding values is publication PMC9071441.

By UniProt entry, the sequences of proteins in these tests, tags left out. Where a name states a change or a piece, a line headed by the entry shows the natural chain unless it says otherwise.
UniProt P23772: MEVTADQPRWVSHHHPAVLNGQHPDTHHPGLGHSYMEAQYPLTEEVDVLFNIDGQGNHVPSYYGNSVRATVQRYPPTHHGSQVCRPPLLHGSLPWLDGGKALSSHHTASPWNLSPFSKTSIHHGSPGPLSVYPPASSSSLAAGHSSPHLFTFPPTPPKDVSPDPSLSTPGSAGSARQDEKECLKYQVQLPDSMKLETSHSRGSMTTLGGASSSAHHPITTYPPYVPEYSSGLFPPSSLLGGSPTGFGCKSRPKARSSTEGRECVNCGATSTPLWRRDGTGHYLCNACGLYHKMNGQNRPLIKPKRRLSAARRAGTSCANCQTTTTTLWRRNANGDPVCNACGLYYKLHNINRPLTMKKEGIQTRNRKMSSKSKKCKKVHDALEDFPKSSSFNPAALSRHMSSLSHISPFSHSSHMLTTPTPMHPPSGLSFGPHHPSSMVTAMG

Substitutions are numbered along the chain they refer to. These are yes or no findings as the source states them, for the method shown. Binding seen in cells or lysates may run through a third protein. Some binding calls cover weakened binding; strength is not graded here. Sequences can lack the tags named with a protein.

Assay [1] concerns the target T1, mNeonGreen-tagged T-bet DNA binding domain (aa 135-326), wild type (mouse) (UniProt Q9JKD8).
T1 sequence: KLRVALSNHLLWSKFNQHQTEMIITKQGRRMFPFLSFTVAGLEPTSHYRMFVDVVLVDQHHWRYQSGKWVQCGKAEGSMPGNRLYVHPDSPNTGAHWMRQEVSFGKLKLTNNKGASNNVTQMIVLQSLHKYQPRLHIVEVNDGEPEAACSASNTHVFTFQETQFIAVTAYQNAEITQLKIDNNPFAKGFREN
The assay is described as follows: co-IP; HEK293T cells transiently transfected with mNeonGreen-tagged and HA-tagged proteins; lysates (300 mM NaCl, 0.5% IGEPAL CA-630) treated with benzonase, diluted to 150 mM NaCl, mNeonGreen-Trap magnetic agarose beads 1 hr at 4°C; washes with 150 mM and 500 mM NaCl; immunoblot with anti-HA.

Assay [2] deals with T2, mNeonGreen-tagged T-bet DNA binding domain (aa 135-326) Q305W (mouse) (UniProt Q9JKD8).
T2 sequence: T1 sequence with Q171W
The description is as above.

The target of assay [3] is T3, mNeonGreen-tagged full-length T-bet (mouse) (UniProt Q9JKD8).
T3 sequence: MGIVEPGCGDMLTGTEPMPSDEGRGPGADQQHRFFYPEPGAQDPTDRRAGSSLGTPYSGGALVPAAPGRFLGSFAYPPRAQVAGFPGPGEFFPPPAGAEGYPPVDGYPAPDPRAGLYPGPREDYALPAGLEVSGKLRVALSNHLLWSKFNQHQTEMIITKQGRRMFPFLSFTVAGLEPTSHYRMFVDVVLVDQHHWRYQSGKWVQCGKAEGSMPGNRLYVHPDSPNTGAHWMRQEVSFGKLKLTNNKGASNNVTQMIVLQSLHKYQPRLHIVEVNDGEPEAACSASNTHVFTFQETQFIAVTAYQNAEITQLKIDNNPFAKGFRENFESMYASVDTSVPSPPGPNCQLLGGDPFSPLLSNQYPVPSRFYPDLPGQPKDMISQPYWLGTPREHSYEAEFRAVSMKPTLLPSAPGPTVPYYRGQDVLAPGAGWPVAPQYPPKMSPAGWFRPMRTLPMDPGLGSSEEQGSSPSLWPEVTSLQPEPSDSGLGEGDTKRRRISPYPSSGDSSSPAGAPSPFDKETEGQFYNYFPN
Described as above.

The target of assay [4] is T4, mNeonGreen-tagged T-bet DNA binding domain (aa 135-326) I257E (mouse) (UniProt Q9JKD8).
T4 sequence: T1 sequence with I123E
Nature of the assay: FRET or BRET; FLIM-FRET (time-domain fluorescence lifetime imaging of mTagBFP donor with mNeonGreen acceptor) in transfected HEK293T cells fixed with 2% formaldehyde 36 hrs after transfection.

Assay [5] concerns the target T1, mNeonGreen-tagged T-bet DNA binding domain (aa 135-326), wild type (mouse). The assay is described as follows: FRET or BRET; flow-cytometric FRET in HEK293T cells co-transfected with 730 ng of each vector for mTagBFP- and mNeonGreen-tagged proteins; read 32 hours after transfection; 405 nm laser line, 530/30 bandpass filter; DFRET efficiency.
In assay [6] the target is T4, mNeonGreen-tagged T-bet DNA binding domain (aa 135-326) I257E (mouse). The assay is described as above.
The target in assay [7] is T5, mNeonGreen-tagged T-bet DNA binding domain (aa 135-326) R163A/R164A (mouse) (UniProt Q9JKD8).
T5 sequence: T1 sequence with R29A, R30A
Described as above.

For assay [8], the target named is T6, mNeonGreen-tagged T-bet DNA binding domain (aa 135-326) R324W (mouse) (UniProt Q9JKD8).
T6 sequence: T1 sequence with R190W
The assay is described as above.

For “full-length GATA3 with C-terminal double HA tag (from UniProt P23772 1-443)”, the binding entry in assay [1] and in assay [2] was “binds” in each case.

With “N-terminally double-HA-tagged GATA3, wild type (from UniProt P23772 1-443)”, the binding result in assay [3] is listed as “binds”.

Regarding “N-terminally double-HA-tagged GATA3 K346A + H348L (from UniProt P23772 1-443)”, the binding entry in assay [3] is reported as “binds”.

On to “mTagBFP-tagged GATA3 DNA binding domain (aa 259-369) (from UniProt P23772 259-369) (domain or fragment)”, for which the binding result was “no binding” in assay [4]; “binds” in assay [5]; “no binding” in assay [6]; “no binding” in assay [7]; “no binding” in assay [8].

Turning to “N-terminally double-HA-tagged GATA3 G342S (from UniProt P23772 1-443)”, the binding entry in assay [3] is on record as “binds”.
